# In all, about 310,000 compounds went through this assay and about 2,200 (0.71%) showed an effect of 50% or more. The effect is printed as a negative number. The list shows a part of the results.
# Biological target: human ether-à-go-go-related gene (hERG) potassium channel (human, UniProt Q12809)
# Assay: primary screen, population patch clamp on CHO cells stably expressing hERG
# Sequence of human ether-à-go-go-related gene (hERG) potassium channel (Q12809 whole entry, looked up): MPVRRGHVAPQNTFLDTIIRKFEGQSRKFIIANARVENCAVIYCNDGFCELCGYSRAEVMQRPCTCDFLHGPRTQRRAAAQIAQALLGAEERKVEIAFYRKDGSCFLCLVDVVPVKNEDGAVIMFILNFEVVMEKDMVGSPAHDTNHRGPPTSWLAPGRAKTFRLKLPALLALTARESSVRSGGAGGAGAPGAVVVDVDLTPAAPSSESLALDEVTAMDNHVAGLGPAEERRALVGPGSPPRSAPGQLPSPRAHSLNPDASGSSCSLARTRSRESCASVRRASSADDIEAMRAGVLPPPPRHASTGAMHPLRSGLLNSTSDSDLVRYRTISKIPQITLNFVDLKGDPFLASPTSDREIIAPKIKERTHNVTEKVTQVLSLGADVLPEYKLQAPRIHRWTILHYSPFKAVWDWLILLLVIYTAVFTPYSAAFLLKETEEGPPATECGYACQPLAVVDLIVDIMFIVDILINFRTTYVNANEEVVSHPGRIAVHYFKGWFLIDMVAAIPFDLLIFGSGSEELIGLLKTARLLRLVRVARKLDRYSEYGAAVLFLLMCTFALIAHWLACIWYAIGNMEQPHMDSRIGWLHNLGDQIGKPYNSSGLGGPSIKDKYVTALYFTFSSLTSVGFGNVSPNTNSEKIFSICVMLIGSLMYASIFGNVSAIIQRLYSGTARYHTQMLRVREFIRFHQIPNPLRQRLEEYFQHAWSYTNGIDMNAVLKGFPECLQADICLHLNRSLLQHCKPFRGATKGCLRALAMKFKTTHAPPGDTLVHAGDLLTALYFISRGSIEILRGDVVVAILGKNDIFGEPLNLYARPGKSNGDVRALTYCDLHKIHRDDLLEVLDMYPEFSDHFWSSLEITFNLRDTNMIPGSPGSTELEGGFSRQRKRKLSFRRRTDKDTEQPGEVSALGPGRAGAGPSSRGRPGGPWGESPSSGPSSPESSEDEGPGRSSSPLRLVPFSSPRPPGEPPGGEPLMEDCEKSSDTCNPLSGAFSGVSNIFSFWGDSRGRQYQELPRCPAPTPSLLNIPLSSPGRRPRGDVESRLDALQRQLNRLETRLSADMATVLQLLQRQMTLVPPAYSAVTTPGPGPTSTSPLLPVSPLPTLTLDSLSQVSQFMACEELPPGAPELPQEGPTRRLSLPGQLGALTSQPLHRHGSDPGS
row,SMILES,"hERG current change (%, negative = inhibition) at 1uM"
1,Cc1cc(NC(=O)CSc2nnc(-c3ccoc3C)n2N)no1,14.8%
2,Cc1nc(S(=O)(=O)c2ccc(Cl)cc2)c(NCc2ccccc2)o1,16.4%
3,COc1cc(OC)cc(C(=O)OCC(=O)Nc2ccc(N3CCCCC3)cc2)c1,8.53%
4,CCOC(=O)c1ccc(NC(=O)CSc2ccc(-c3ccncc3)nn2)cc1,9.76%
5,Cc1cc(OCC(=O)NNC(=O)c2cccs2)ccc1Br,13%
6,CCN(CC)C(=O)C(=O)N/N=C/c1cccc(Br)c1,-5.32%
7,CC(C)CCNC(=O)C(c1ccco1)N(CCCO)C(=O)Cn1nnc(-c2ccc(F)cc2)n1 (stereo not drawn),-9.57%
8,CCCCC1CCC(C(=O)N(CC(C)C)c2c(N)n(CCCC)c(=O)[nH]c2=O)CC1 (stereo not drawn),10.8%
9,CCCCOc1ccc(C(=S)N2CCC(C(N)=O)CC2)cc1,11.2%
10,CN(C(=O)CN1C(=O)S/C(=C\c2ccccc2Cl)C1=O)C1CCS(=O)(=O)C1 (stereo not drawn),6.12%
11,O=C(O)c1cc([N+](=O)[O-])ccc1NCCCc1ccccc1,16.9%
12,CCCCOc1ccc(-c2[nH]ncc2C=O)cc1,9.46%
13,Cc1ccc(-n2c3c(cc(C(=O)NC4CCSC4=O)c2=O)C(=O)CCC3)cc1 (stereo not drawn),2.02%
14,c1coc(CSCc2cn3cccnc3n2)c1,11.7%
15,Fc1ccc(CN2CCN(c3ccc(Cl)cc3)CC2)cc1,3.3%
16,O=C(COC(=O)c1ccc2c(c1)OCO2)Nc1ncc(Cl)cc1Cl,16.3%
17,CCn1c(C)nc2cc(C(=O)N/N=C/c3ccc(OC)c(O)c3)ccc21,2.59%
18,Cc1ccc(C(=O)NCCc2ccccn2)cc1S(=O)(=O)N1CCOCC1,7.29%
19,CC(C)Oc1ccc(CCN)cc1Cl.Cl,1.19%
20,O=C(CSc1nc2ccsc2c(=O)n1-c1ccccc1)N1CCCC1,6.38%
21,COc1ccc(OCC(=O)Nc2ccccc2C(=O)NC2CC2)cc1,13%
22,COC(=O)c1c(NC(=O)C2CC2)sc2c1CCN(C(C)=O)C2,1.12%
23,O=C(O)C(=O)O.O=S(=O)(c1ccc2ccccc2c1)N1CCN(C2Cc3ccccc3C2)CC1,1.28%

row,SMILES,"hERG current change (%, negative = inhibition) at 1uM"
1,CCOC(=O)CSc1nnc(NC(=O)C2CC(=O)N(c3ccc(F)cc3)C2)s1 (stereo not drawn),14.1%
2,NC(=O)c1ccc(N2CCN(S(=O)(=O)c3ccccc3)CC2)c([N+](=O)[O-])c1,7.92%
3,CCOCC(=O)Nc1cc(-c2cn3cccnc3n2)ccc1C,10%
4,COC(=O)c1ccc(C(=O)Nc2ccc3c(c2)C(=O)NC3=O)cc1,8.58%
5,CC(NS(=O)(=O)c1ccc(F)cc1)C(=O)Nc1ccc2c(c1)OCCO2 (stereo not drawn),14.7%
6,CCOC(=O)c1cc(NC(=O)N(C)C2CCCCC2)c(C)nc1C,12%
7,O=C(Nc1ccc(F)cc1)C(Sc1nnc2ccccn12)c1ccccc1 (stereo not drawn),10%
8,O=S(=O)(c1cccc(C(F)(F)F)c1)N1CCN(c2ccccc2)CC1,-7.98%
9,Cc1ccc(C)c(S(=O)(=O)NCC(=O)N2CCCC2)c1,12%
10,Cc1cc(-c2cccnc2)c(C#N)c(SCC#N)n1,9.79%
11,CCn1c(O)c(C=Nc2cc(Cl)ccc2Cl)c(=O)n(CC)c1=O,9.47%
12,COc1cc(/C=N/NC(=S)Nc2cccc(S(=O)(=O)N(C)C)c2)cc(OC)c1O,-4.14%
13,COc1ccc(COc2cc(-c3cccc(OC)c3)nc3ccc(NC(=O)c4ccc(Cl)cc4)cc23)cc1,9.64%
14,CCN1C(=O)N(CC)C2C1N(CO)C(=O)N2CO (stereo not drawn),16.3%
15,COc1ccc(OC)c(CNC(=O)CCC(=O)N2Cc3ccccc3Oc3ncccc32)c1,-10.8%
16,Cc1ccc(NC(=O)COC(=O)c2ccccc2Nc2ccccc2)cc1,10.7%
17,Cc1nc(Nc2ccc(F)cc2)[nH]c(=O)c1CCC(C)C,19.2%
18,COC(=O)n1ccc(C(=O)Nc2ccccc2F)n1,-7.2%
19,COc1ccc(C2c3ccsc3CCN2C(=O)NC(C)(C)C)cc1 (stereo not drawn),3.01%
20,CS(=O)(=O)NCc1nnc(SCC(=O)NC2CCCCC2)n1-c1ccc(F)cc1,10.3%
21,Nc1c(C(=O)CSc2nnc(Nc3ccc(F)cc3)s2)c(=O)[nH]c(=O)n1C1CC1,3.38%
22,O=C(Nc1ccncc1)c1ccccc1-c1ccccc1,12.5%
23,COc1ccc(-c2cc(C(F)(F)F)nc(N3CCN(Cc4ccccc4)CC3)n2)cc1OC,23.2%

row,SMILES,"hERG current change (%, negative = inhibition) at 1uM"
1,O=C(NNC(=O)c1ccccc1F)c1ccc2[nH]c(=O)c(=O)[nH]c2c1,3.21%
2,Cc1cc(NCc2ccccc2Cl)n2nnnc2n1,17.8%
3,O=C(Nc1cccc(-c2nc3cccnc3s2)c1)c1cccnc1Cl,4.08%
4,CC(C)(C)c1csc(NC(=O)c2ccc3nccnc3c2)n1,-6.96%
5,CCCN(CCC)CCNC(=O)Cn1cnc2sc(C)c(S(=O)(=O)N3CCOCC3)c2c1=O,13.6%
6,Cc1ccc2sc(N3CCN(C(=O)C4=COCCO4)CC3)nc2c1C,5.72%
7,CCCCOc1ccc(N=Cc2ccc[nH]2)cc1,23.1%
8,CSc1nnc(-c2ccc([N+](=O)[O-])cc2)o1,13.8%
9,CCN1CCCC1CNC(=O)c1[nH]c2ccc(OC)cc2c1C (stereo not drawn),-27.5%
10,Cc1onc(C(=O)Nc2ccccc2C(F)(F)F)c1[N+](=O)[O-],16%
11,O=C1CN(C(=O)COC(=O)c2cccnc2Cl)c2ccccc2N1,11.1%
12,Cc1cc2cc(C)c(SCC(=O)NCc3ccco3)nc2cc1C,7.35%
13,O=[N+]([O-])c1ccc(Oc2ccc(S(=O)(=O)N3CCOCC3)cc2)cc1,-3.54%
14,CCc1ccc(Nc2ncc3c(n2)CC(C)(C)CC3=O)cc1,6.45%
15,Cc1cc(C)c(NC(=S)N(Cc2cccnc2)Cc2ccco2)c(C)c1,6.35%
16,COc1cccc(CC(=O)Nc2nc3c(s2)C(=O)CC(C)(C)C3)c1,10.7%
17,Cc1ccc(NC(=O)c2ccc3c(=O)n4c(nc3c2)CCCCC4)cc1F,-5.54%
18,O=C(NCC1CCCO1)c1ccc(NC(=O)c2cccc(Br)c2)cc1 (stereo not drawn),10.4%
19,COc1ccc(OC)c(/C=C2\SC(=S)N(N3CCOCC3)C2=O)c1,14.8%
20,CN1CCN(c2cc(N3CCCC3)c([N+](=O)[O-])cc2F)CC1,8.13%
21,O=C(Cn1cnc2ccccc2c1=O)c1ccc2ccccc2c1,2.67%
22,CCN1CCN(C(=O)Nc2cccc3ccccc23)CC1,-9.46%
23,CCOC(=O)c1nn(-c2ccc(C)c(C)c2)c(=O)c(C#N)c1C,14.3%

row,SMILES,"hERG current change (%, negative = inhibition) at 1uM"
1,CCO[C@H]1OC(C(=O)N2CCOCC2)=C[C@@H](c2ccc(C(F)(F)F)cc2)[C@@H]1CCCO,-4.86%
2,CCN(CC)CC#CCC(O)(c1ccccc1)c1ccc(Br)cc1.Cl (stereo not drawn),4.23%
3,O=C(CP(=O)(CO)CO)c1ccc(Cl)cc1,-1.03%
4,CC(=O)n1cc(N(C(=O)CCl)c2ccc(C)cc2)c2ccccc21,11.7%
5,CN(CC(=O)Nc1ncn[nH]1)S(=O)(=O)c1cc(Cl)ccc1Cl,-6.58%
6,CCN(c1ccccc1)S(=O)(=O)c1ccc(Cl)c(C(=O)OCC(=O)c2[nH]c(C)c(C(C)=O)c2C)c1,-5.09%
7,O=C(COC(=O)c1ccccn1)NNC(=O)c1ccc([N+](=O)[O-])cc1,-8.7%
8,O=C(Cc1nn[nH]n1)NCc1ccccc1Cl,-6.71%
9,OC1(c2cn(Cc3ccccc3)nn2)CCCCC1,7.09%
10,CC(C)N(CCNC(=O)c1cn(C)c2ccc(S(=O)(=O)N(C)C)cc2c1=O)Cc1ccccc1,0.0714%
11,CC(OC(=O)c1cccc(S(=O)(=O)N2CCCC2)c1)C(=O)c1ccccc1 (stereo not drawn),15.7%
12,CC1Cc2ccccc2N1C(=O)CSc1nnc(C2CC2)n1C (stereo not drawn),12.6%
13,O=C1c2ccccc2C(O)N1Cc1ccc2c(c1)OCO2 (stereo not drawn),11.8%
14,Cc1ccc2nc(SCc3cn4c(C)cc(C)nc4n3)[nH]c2c1,1.84%
15,CSCCC(NC(=O)c1ccco1)C(=O)N1CCN(Cc2ccccc2)CC1 (stereo not drawn),-0.0338%
16,CC1(C)CC2CC(C)(CN2Cc2c(O)ccc3ccccc23)C1 (stereo not drawn),5.04%
17,O=C(NCCC1=CCCCC1)c1cc(COc2c(F)cccc2F)on1,9.73%
18,Cc1noc(C(=O)Nc2c(C)nn(Cc3ccccc3)c2C)c1Cl,10.1%
19,CC(C)N(CCO)C(=O)C(c1ccccc1)c1ccccc1,5.9%
20,CC1NC(=O)N(C)[C@@H]2NC(=O)N(C)C(c3ccc([N+](=O)[O-])cc3)[C@@H]12 (stereo partly drawn),9.47%
21,O=C(Nc1cccc(F)c1)C1CC(=O)N(c2ccc(Cl)cc2)C1 (stereo not drawn),5.67%
